Measured values from article PMC12136788.
The list shows a part of the results.

T1: UNK ZnF1-3 (human, UniProt Q9C0B0 31-174)
T1 sequence: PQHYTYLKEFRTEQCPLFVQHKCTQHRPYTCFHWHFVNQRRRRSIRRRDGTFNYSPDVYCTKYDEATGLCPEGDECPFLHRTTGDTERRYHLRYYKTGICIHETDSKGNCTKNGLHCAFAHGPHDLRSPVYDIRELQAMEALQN

B1: 89898744_89908832_476_3pUTR_ENSMUSG00000002489_ENSMUST00000163370|mouse|control|control (ssRNA)
RNA: GGGAGUUCUACAGUCCGACGAUCCGCCCCAGGCUGGCAUGCUUUUCUCCAUAAAACUCGUGGUCUACAUUUUGGCUUUCUGCGUUUCCCAUGGUUUUAUGGUCUUCAAAGGCAACAGUGGUGCCCAGCCCAACUGGCCCCAGGCAACAGAGGAUUGAGCAUCA
B2: chr4:6323411:6323412:-_ENSMUSG00000028245_ENSMUST00000029910|mus_hu|motif|central (ssRNA)
RNA: GGGAGUUCUACAGUCCGACGAUCAGAAAAAUAUUUUUAAUGUAGAAAAGAUGAAUAGCUGUAAUGAAAUACAAACCGUUCCGGUACACAGUAAACUUACUAAGAACUGCUAAUCCUUCUCCAGGUUCUUAGAAUCUGGGUACACAACAGAGGAUUGAGCAUCA
B3: chrX:45560084:45560085:-_ENSMUSG00000036985_ENSMUST00000037960|mus_hu|FALSE|FALSE (ssRNA)
RNA: GGGAGUUCUACAGUCCGACGAUCGCGAUUACACGAGAGAAGAAACAGAGGCUGAGCCCAGCUUUGAAAUCACGUUGCCUGCUAUUCCUGCCGCUGGGUCAAACAUCAUCAAAAGUCCAAUUGCUAGCCCUGGAAGACAAUCUCCAACAGAGGAUUGAGCAUCA
B4: chr15:43486971:43486972:+_ENSG00000166946_ENST00000300213|hu_hu|FALSE|FALSE (ssRNA)
RNA: GGGAGUUCUACAGUCCGACGAUCGAGCUCCUUGAUUCUAUUCAUGCAAUGAUCAAUGGCAUUAAUAAGUAAAGGGAUCCAACUAUCUUCUGGCUGAGGGGUCACAUGACUUGCUUUUGUAAUUUCAAGUGCCUUCUUUAAAACCAACAGAGGAUUGAGCAUCA
B5: chr6:124691279:124691280:-_ENSMUSG00000072772_ENSMUST00000004389|mus_mus|motif|central (ssRNA)
RNA: GGGAGUUCUACAGUCCGACGAUCCAGUGAAAUUGGGAGGGGUUUUCCGACCGAAGUCAGAAAACCUGCUAGACAAAUUCGGAAAGAGCUGUAACACUUGCGGAAGUGCGUCUGUAGCGAGCCAGGGAAGGACAUCAACUCCACCAACAGAGGAUUGAGCAUCA
B6: chr8:104447970:104447971:+_ENSG00000164934_ENST00000297579|hu_hu|hu_hu_hu_mus_False|1_58 (ssRNA)
RNA: GGGAGUUCUACAGUCCGACGAUCAUACACUUCCCUGCUUCGGCUCUUGUCCACAGGAAAGAUUCUAAUAGACUUAUCGAAACUAGCAGACACAAAUUCCUUCCCAGUGGGAGAGUAGUCCACAUCAAGUACUGCAGAUACAUGCAACAGAGGAUUGAGCAUCA
B7: chr14:45963330:45963331:+_ENSMUSG00000021832_ENSMUST00000022380|perfect_dup|motif|central (ssRNA)
RNA: GGGAGUUCUACAGUCCGACGAUCGAUUUUCAAUAUAUCUAAUCUUGCUUGUUCAUUUGGUAAAUCGAUAUGUAUUUUUCGGUCGGAUCUUCCUGGGCGCAGCAAAGCAGGAUCCAGUGUAUCUGGUCUGUUUGUAGCCAUGAUCAACAGAGGAUUGAGCAUCA
B8: chr10:126679069:126679070:-_ENSMUSG00000074657_ENSMUST00000099172|mus_hu|FALSE|FALSE (ssRNA)
RNA: GGGAGUUCUACAGUCCGACGAUCGCGGAUCUCCUCCUCGUAUUUCUGCCGCUCCUCGGGCGCGAUGCGCACCACGAUGGAUGAGUUGUCAUUCACAGGGGUCUCCUCACAGAGCUCGGCUCCCAGGGCUGCCUCCUCCCCAGCCAACAGAGGAUUGAGCAUCA
B9: chr16:94690093:94690094:+_ENSMUSG00000040785_ENSMUST00000117648|mus_hu|mus_mus_mus_hu_True|58_58 (ssRNA)
RNA: GGGAGUUCUACAGUCCGACGAUCGGGCUGGGAUGACGGACACACAGCCUCGAUUCCAGGGGGAAAAAGUCUUAGUCAAUACUAAUUAAAAAGUGUUAAUGAUUUUUGAAAAUCAGAUUACAUCUAUAAAAGAUGAAAAGCAAACAACAGAGGAUUGAGCAUCA
B10: chr6:29325759:29325760:+_ENSMUSG00000029767_ENSMUST00000031779|mus_mus|FALSE|FALSE (ssRNA)
RNA: GGGAGUUCUACAGUCCGACGAUCAGAUGAGAAAACGGCUCAAGUGGUCCUCAAACCAAGAGCCCCCUCUGUACAUCCUUCUAUCCUUGAGGCAAAGCUCAAGCCCUGGUGAGCAGAGGCCUGGGAGAAGAGUGGUUUGCCUUCCAACAGAGGAUUGAGCAUCA
B11: chr5:134235298:134235299:+_ENSG00000113621_ENST00000507024|hu_mus|motif|central (ssRNA)
RNA: GGGAGUUCUACAGUCCGACGAUCUUGUCCUGGAAUCAGCCACCGAAUACUCUCAGUGCGGAUGGUAGCAUACAUAAUGAAACGGAUUAAAAAGAACAAGGAAAACACCAGCAACCAAUCCACAGUCUUUAUCAAAGUGCUGGGCAACAGAGGAUUGAGCAUCA
B12: chr22:32879901:32879902:+_ENSG00000100225_ENST00000397426|hu_mus|hu_hu_hu_mus_False|1_38 (ssRNA)
RNA: GGGAGUUCUACAGUCCGACGAUCCUCUUCCAUACUCAUGGCAUCCUGAAUUGACUCAGCUUCAACAUUUUGACUAGGCCCUUCCAUACUGUCAUCAUUCCAAACACCAAAUGGGGUGGCCUGUCCUUGGGAUGAAUCACUUGGCAACAGAGGAUUGAGCAUCA
B13: chr14:89307221:89307222:+_ENSG00000165533_ENST00000346301|hu_mus|hu_hu_hu_mus_False|18_58 (ssRNA)
RNA: GGGAGUUCUACAGUCCGACGAUCUCCUGUUUGGUUAGUGCCAGGGAGCUUCAAAGAUGUGCCAGGGCGUGGGACCUGAGCUAUAGCAUUUUCAUCCAGGAUCAUUUCAGCAAUUCCUUCCUGAUCUACAUCAAUUUCAUCUAUCAACAGAGGAUUGAGCAUCA
B14: chr2:61749799:61749800:-_ENSG00000082898_ENST00000401558|hu_mus|FALSE|FALSE (ssRNA)
RNA: GGGAGUUCUACAGUCCGACGAUCUCCUUCACACUGGUUCCUUGGAAGGAUCUUCCACCUUGUUUUGAUCACAUUUUCCAAAAUCUGUAGUCCAUAGUAUUUCGUGUUCAUGUUCUGCGAAAACUCCAAUAUUGUGUCGACCCGCAACAGAGGAUUGAGCAUCA

These binders were tested against T1, UNK ZnF1-3 (assay: nsRBNS (natural sequence RNA bind-n-seq); RBNS binding buffer (assumed for nsRBNS): 25 mM Tris pH 7.5, 150 mM KCl, 3 mM MgCl2, 0.01% Triton X-100, 500 ug/ml BSA, 20 U/ml SUPERase-In, 4 C; UNK is unkempt and MSI1 is Musashi-1; names of the RNAs are library labels; protein concentration not given here; high values mean tight binding).
With B1 the binding signal was 0.649 enrichment R.
B2 gave a binding signal of 1.36 enrichment R.
With B3 the binding signal was 1.97 enrichment R.
B4 gave a binding signal of 1.44 enrichment R.
B5 was tested, and the binding signal was 1.8 enrichment R.
Binder B6 has a binding signal of 0.841 enrichment R.
B7 showed a binding signal of 0.374 enrichment R.
In the case of B8, the binding signal is reported as 1.56 enrichment R.
In the case of B9, the binding signal is reported as 0.917 enrichment R.
B10 gave a binding signal of 0.768 enrichment R.
Binder B11 has a binding signal of 1.37 enrichment R.
Work on B12 yielded a binding signal of 0.945 enrichment R.
Binder B13 has a binding signal of 0.883 enrichment R.
B14 was tested, and the binding signal was 0.546 enrichment R.
